Assay results taken from the supplement of paper PMC9588766.
Counter-ions that a name gives are not always drawn. Over roughly 1,900 compounds, “cell viability of compound + 1 nM pemigatinib relative to pemigatinib-only (DMSO) wells” has its median near 0.95; the lowest 2% begin near 0.22. The list shows a part of the results.

Each molecule was assayed on PDC-DUC18828 (assay: cell viability of compound + 1 nM pemigatinib relative to pemigatinib-only (DMSO) wells (fraction); PDC-DUC18828 is a patient-derived cholangiocarcinoma cell line; higher = less growth inhibition). Settings: first compound 1 µM; pemigatinib concentration 1 nM; 72 h.
Experimental: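 Selleck Bioactive library screen in the patient-derived FGFR2 fusion-positive ICC cell line PDC-DUC18828 (500 cells/well). Each compound was tested at 1 uM with 1 nM pemigatinib, in triplicate, for 72 h. Viability was read by CellTiter-Glo and normalised to plate DMSO controls. Value is the paper's averaged normalised viability.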

Row | SMILES | cell viability
1 | O=C(NCc1ccccc1)c1csc(Nc2ccncn2)n1 [Thiazovivin] + CCN1C(=O)N(c2c(F)c(OC)cc(OC)c2F)Cc2cnc3[nH]c(CN4CCOCC4)cc3c21 [pemigatinib] | 0.977
2 | CC(S)C(=O)NCC(=O)O (configuration not stated) [Tiopronin] + CCN1C(=O)N(c2c(F)c(OC)cc(OC)c2F)Cc2cnc3[nH]c(CN4CCOCC4)cc3c21 [pemigatinib] | 0.974
3 | CNCc1ccc(-c2cc(-c3nc(-c4ccc(S(=O)(=O)C(C)C)cc4)cnc3N)on2)cc1 + CCN1C(=O)N(c2c(F)c(OC)cc(OC)c2F)Cc2cnc3[nH]c(CN4CCOCC4)cc3c21 [pemigatinib] | 0.87
4 | CN1CCN(CCCN2c3ccccc3Sc3ccc(C(F)(F)F)cc32)CC1 [Trifluoperazine 2HCl] + CCN1C(=O)N(c2c(F)c(OC)cc(OC)c2F)Cc2cnc3[nH]c(CN4CCOCC4)cc3c21 [pemigatinib] | 0.829
5 | CC[C@H](C)[C@H](N)C1=N[C@H](C(=O)N[C@@H](CC(C)C)C(=O)N[C@H](CCC(=O)O)C(=O)N[C@H](C(=O)N[C@H]2CCCCNC(=O)[C@H](CC(N)=O)NC(=O)[C@@H](CC(=O)O)NC(=O)[C@H](Cc3cnc[nH]3)NC(=O)[C@@H](Cc3ccccc3)NC(=O)[C@H]([C@@H](C)CC)NC(=O)[C@@H](CCCN)NC2=O)[C@@H](C)CC)CS1 [Bacitracin] + CCN1C(=O)N(c2c(F)c(OC)cc(OC)c2F)Cc2cnc3[nH]c(CN4CCOCC4)cc3c21 [pemigatinib] | 0.961
6 | O=C(CCc1ccc(O)cc1)c1c(O)cc(O)cc1O [Phloretin] + CCN1C(=O)N(c2c(F)c(OC)cc(OC)c2F)Cc2cnc3[nH]c(CN4CCOCC4)cc3c21 [pemigatinib] | 0.98
7 | OC(CNCC(O)C1CCc2cc(F)ccc2O1)C1CCc2cc(F)ccc2O1 (configuration not stated) [Nebivolol] + CCN1C(=O)N(c2c(F)c(OC)cc(OC)c2F)Cc2cnc3[nH]c(CN4CCOCC4)cc3c21 [pemigatinib] | 1.03
8 | CN(CC(=O)N(Cc1ccc(C2CCCCC2)cc1)c1ccc(C(=O)O)cc1)S(=O)(=O)c1c(F)c(F)c(F)c(F)c1F + CCN1C(=O)N(c2c(F)c(OC)cc(OC)c2F)Cc2cnc3[nH]c(CN4CCOCC4)cc3c21 [pemigatinib] | 0.809
9 | CCc1nc(N)nc(N)c1-c1ccc(Cl)cc1 [Pyrimethamine] + CCN1C(=O)N(c2c(F)c(OC)cc(OC)c2F)Cc2cnc3[nH]c(CN4CCOCC4)cc3c21 [pemigatinib] | 0.95
10 | Cc1c(C(=O)NN2CCCCC2)nn(-c2ccc(Cl)cc2Cl)c1-c1ccc(I)cc1 + CCN1C(=O)N(c2c(F)c(OC)cc(OC)c2F)Cc2cnc3[nH]c(CN4CCOCC4)cc3c21 [pemigatinib] | 0.926
11 | CC(C)NCC(O)COc1ccc(CCOCC2CC2)cc1 (configuration not stated) [Betaxolol] + CCN1C(=O)N(c2c(F)c(OC)cc(OC)c2F)Cc2cnc3[nH]c(CN4CCOCC4)cc3c21 [pemigatinib] | 0.97
12 | CN1CC(=O)N2[C@H](c3ccc4c(c3)OCO4)c3[nH]c4ccccc4c3C[C@@H]2C1=O [Tadalafil] + CCN1C(=O)N(c2c(F)c(OC)cc(OC)c2F)Cc2cnc3[nH]c(CN4CCOCC4)cc3c21 [pemigatinib] | 1.03
13 | CCN(C(=O)c1c(O)c2c(Cl)cccc2n(C)c1=O)c1ccccc1 [Laquinimod] + CCN1C(=O)N(c2c(F)c(OC)cc(OC)c2F)Cc2cnc3[nH]c(CN4CCOCC4)cc3c21 [pemigatinib] | 1.02
14 | Cc1cccc(-c2[nH]c(C(C)(C)C)nc2-c2ccc3c(c2)OCO3)n1 + CCN1C(=O)N(c2c(F)c(OC)cc(OC)c2F)Cc2cnc3[nH]c(CN4CCOCC4)cc3c21 [pemigatinib] | 1.02
15 | CC(NC(=O)c1ccccc1/N=C/c1c(O)ccc2ccccc12)c1ccccc1 (configuration not stated) [Sirtinol] + CCN1C(=O)N(c2c(F)c(OC)cc(OC)c2F)Cc2cnc3[nH]c(CN4CCOCC4)cc3c21 [pemigatinib] | 0.961
16 | CCCN1CCCC[C@H]1C(=O)Nc1c(C)cccc1C [Ropivacaine HCl] + CCN1C(=O)N(c2c(F)c(OC)cc(OC)c2F)Cc2cnc3[nH]c(CN4CCOCC4)cc3c21 [pemigatinib] | 0.982
17 | CC(C)(OCc1nn(Cc2ccccc2)c2ccccc12)C(=O)O [Bindarit] + CCN1C(=O)N(c2c(F)c(OC)cc(OC)c2F)Cc2cnc3[nH]c(CN4CCOCC4)cc3c21 [pemigatinib] | 0.884
18 | COc1ccc(NS(=O)(=O)c2sc3ccc(Cl)cc3c2C)cc1N1CCNCC1 + CCN1C(=O)N(c2c(F)c(OC)cc(OC)c2F)Cc2cnc3[nH]c(CN4CCOCC4)cc3c21 [pemigatinib] | 0.942
19 | COc1cc(OC2CCN(C)CC2)ccc1Nc1ncc2c(n1)n(C1CCCC1)c(=O)n2C + CCN1C(=O)N(c2c(F)c(OC)cc(OC)c2F)Cc2cnc3[nH]c(CN4CCOCC4)cc3c21 [pemigatinib] | 0.92

Row | SMILES | cell viability
20 | C#CCN[C@@H]1CCc2ccccc21 [Rasagiline Mesylate] + CCN1C(=O)N(c2c(F)c(OC)cc(OC)c2F)Cc2cnc3[nH]c(CN4CCOCC4)cc3c21 [pemigatinib] | 1
21 | CCOc1nc2cccc(C(=O)OCc3oc(=O)oc3C)c2n1Cc1ccc(-c2ccccc2-c2noc(=O)[nH]2)cc1 [Azilsartan Medoxomil] + CCN1C(=O)N(c2c(F)c(OC)cc(OC)c2F)Cc2cnc3[nH]c(CN4CCOCC4)cc3c21 [pemigatinib] | 1.05
22 | O=C(NCC1(c2nc(-c3ccccc3)cs2)CCOCC1)c1cccc(-c2noc(C(F)(F)F)n2)c1 + CCN1C(=O)N(c2c(F)c(OC)cc(OC)c2F)Cc2cnc3[nH]c(CN4CCOCC4)cc3c21 [pemigatinib] | 0.991
23 | Cc1ccc(NC(=O)c2ccc(CN3CCN(C)CC3)cc2)cc1Nc1nccc(-c2cccnc2)n1 [Imatinib (STI571)] + CCN1C(=O)N(c2c(F)c(OC)cc(OC)c2F)Cc2cnc3[nH]c(CN4CCOCC4)cc3c21 [pemigatinib] | 0.955
24 | Cc1ccc(NC(=O)c2ccc(CN3CCN(C)CC3)cc2)cc1Nc1nccc(-c2cccnc2)n1 [Imatinib Mesylate (STI571)] + CCN1C(=O)N(c2c(F)c(OC)cc(OC)c2F)Cc2cnc3[nH]c(CN4CCOCC4)cc3c21 [pemigatinib] | 1.06
25 | Cc1nn(-c2ccccc2)c(C)c1C=NN1CCN(Cc2ccccc2)CC1 + CCN1C(=O)N(c2c(F)c(OC)cc(OC)c2F)Cc2cnc3[nH]c(CN4CCOCC4)cc3c21 [pemigatinib] | 0.939
26 | CC(C)C(=O)Oc1ccc(CO)cc1[C@H](CCN(C(C)C)C(C)C)c1ccccc1 [Fesoterodine Fumarate] + CCN1C(=O)N(c2c(F)c(OC)cc(OC)c2F)Cc2cnc3[nH]c(CN4CCOCC4)cc3c21 [pemigatinib] | 1
27 | O=C(O)C(=O)O.[NH-][C@@H]1CCCC[C@H]1[NH-].[Pt+2] [Oxaliplatin] + CCN1C(=O)N(c2c(F)c(OC)cc(OC)c2F)Cc2cnc3[nH]c(CN4CCOCC4)cc3c21 [pemigatinib] | 0.922
28 | CCc1c2c(nc3ccc(O)cc13)-c1cc3c(c(=O)n1C2)COC(=O)[C@]3(O)CC + CCN1C(=O)N(c2c(F)c(OC)cc(OC)c2F)Cc2cnc3[nH]c(CN4CCOCC4)cc3c21 [pemigatinib] | 0.125
29 | CCOC(=O)c1cnc2ccc(-c3cncc(NS(=O)(=O)c4ccccc4)c3)cn12 + CCN1C(=O)N(c2c(F)c(OC)cc(OC)c2F)Cc2cnc3[nH]c(CN4CCOCC4)cc3c21 [pemigatinib] | 0.407
30 | C[C@@H](Nc1cc(F)cc(F)c1)c1cc(C(=O)N(C)C)cc2c(=O)cc(N3CCOCC3)oc12 + CCN1C(=O)N(c2c(F)c(OC)cc(OC)c2F)Cc2cnc3[nH]c(CN4CCOCC4)cc3c21 [pemigatinib] | 0.66
31 | COc1cc(C(=O)N2CCC(N3CCN(C)CC3)CC2)ccc1Nc1ncc2c(n1)N(C)c1ccccc1C(=O)N2C + CCN1C(=O)N(c2c(F)c(OC)cc(OC)c2F)Cc2cnc3[nH]c(CN4CCOCC4)cc3c21 [pemigatinib] | 0.986
32 | Clc1ccc(C(Cn2ccnc2)OCc2ccsc2Cl)c(Cl)c1 (configuration not stated) [Tioconazole] + CCN1C(=O)N(c2c(F)c(OC)cc(OC)c2F)Cc2cnc3[nH]c(CN4CCOCC4)cc3c21 [pemigatinib] | 1.02
33 | C[C@H]1c2cccc(O)c2C(=O)C2=C(O)[C@]3(O)C(=O)C(C(N)=O)=C(O)[C@@H](N(C)C)[C@@H]3[C@@H](O)[C@@H]21 [Doxycycline Hyclate] + CCN1C(=O)N(c2c(F)c(OC)cc(OC)c2F)Cc2cnc3[nH]c(CN4CCOCC4)cc3c21 [pemigatinib] | 1.02
34 | COc1cc2c(cc1OC)CC(=O)N(CCCN(C)C[C@H]1Cc3cc(OC)c(OC)cc31)CC2 [Ivabradine HCl] + CCN1C(=O)N(c2c(F)c(OC)cc(OC)c2F)Cc2cnc3[nH]c(CN4CCOCC4)cc3c21 [pemigatinib] | 1.07
35 | Cc1c(C(=O)NN2CCCCC2)nn(-c2ccc(Cl)cc2Cl)c1-c1ccc(Cl)cc1 [Rimonabant] + CCN1C(=O)N(c2c(F)c(OC)cc(OC)c2F)Cc2cnc3[nH]c(CN4CCOCC4)cc3c21 [pemigatinib] | 0.882
36 | COc1ccc(O)cc1 [Mequinol] + CCN1C(=O)N(c2c(F)c(OC)cc(OC)c2F)Cc2cnc3[nH]c(CN4CCOCC4)cc3c21 [pemigatinib] | 0.987
37 | CCCCCCOC(=O)NC(=N)c1ccc(NCc2nc3cc(C(=O)N(CCC(=O)OCC)c4ccccn4)ccc3n2C)cc1 [Dabigatran Etexilate] + CCN1C(=O)N(c2c(F)c(OC)cc(OC)c2F)Cc2cnc3[nH]c(CN4CCOCC4)cc3c21 [pemigatinib] | 0.993
